The list shows a part of the results.

The target of this experiment is T1, MBP-FoxP1dN (Mus musculus, UniProt P58462 326-579).
T1 sequence: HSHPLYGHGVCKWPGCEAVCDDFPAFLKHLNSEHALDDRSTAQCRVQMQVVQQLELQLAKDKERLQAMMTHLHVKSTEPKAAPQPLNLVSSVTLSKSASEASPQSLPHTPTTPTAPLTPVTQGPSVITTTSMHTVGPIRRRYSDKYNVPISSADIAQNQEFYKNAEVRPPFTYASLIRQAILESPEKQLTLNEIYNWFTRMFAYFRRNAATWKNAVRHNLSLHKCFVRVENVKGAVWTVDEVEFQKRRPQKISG
Put plainly: PD-seq (MBP pull-down with sequencing); 20 mM Tris-HCl pH 7.5, 100 mM NaCl, 1.5 mM MgCl2, 0.4 uM protein, 0.1 uM dsDNA library, 30 min, room temperature, amylose pull-down; high values mean tight binding. The note with it: protein: recombinant; tags: His6-MBP; chain copies: 2; dsDNA, one strand shown. Summed up:
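Protein and DNA were mixed at 0.4 µM and 0.1 µM and held for 30 min at room temperature in Tris pH 7.5 buffer with NaCl and MgCl2; the protein was a His6-MBP-tagged, N-terminally truncated mouse FoxP3 or FoxP1 fragment from E. coli, and the DNA a Klenow-filled double-stranded degenerate library. Amylose resin captured the complexes, which were washed three times. Binding is read as reads-per-million enrichment of pull-down versus input after Illumina sequencing, with replicates pooled.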
“GATGATTGTTCTCCCAGCTGATGAATTCAGGAATTCGAGTAAACAAATTTTCCTAATCTTTCTGTTCAAGCGCCATCTAC”: the binding signal is 0.864 RPM ratio (pull-down/input).
For “GATGATTGTTCTCCCAGCTGATGAATTCAAACGGTCGAGTAAACAAATTTTCCTAATCTTTCTGTTCAAGCGCCATCTAC”, the binding signal is 0.841 RPM ratio (pull-down/input).
For the sequence “GATGATTGTTCTCCCAGCTGATGAATTGAGGACTTCGAGTAAACAAATTTTCCTAATCTTTCTGTTCAAGCGCCATCTAC”, the binding signal is 0.783 RPM ratio (pull-down/input).
For “GATGATTGTTCTCCCAGCTGATGAATTGCACGAATCGAGTAAACAAATTTTCCTAATCTTTCTGTTCAAGCGCCATCTAC” the value was 1.22 RPM ratio (pull-down/input); for “GATGATTGTTCTCCCAGCTGATGAATTAGTAGACTCGAGTAAACAAATTTTCCTAATCTTTCTGTTCAAGCGCCATCTAC”, 0.948 RPM ratio (pull-down/input); for “GATGATTGTTCTCCCAGCTGATGAATTACCACATTCGAGTAAACAAATTTTCCTAATCTTTCTGTTCAAGCGCCATCTAC”, 1.15 RPM ratio (pull-down/input).
The result for “GATGATTGTTCTCCCAGCTGATGAATTCGAGGGATCGAGTAAACAAATTTTCCTAATCTTTCTGTTCAAGCGCCATCTAC” reads 0.761 RPM ratio (pull-down/input); that for “GATGATTGTTCTCCCAGCTGATGAATTTGCGCAATCGAGTAAACAAATTTTCCTAATCTTTCTGTTCAAGCGCCATCTAC”, 1.25 RPM ratio (pull-down/input); that for “GATGATTGTTCTCCCAGCTGATGAATTATGACCATCGAGTAAACAAATTTTCCTAATCTTTCTGTTCAAGCGCCATCTAC”, 1.04 RPM ratio (pull-down/input).
In the case of “GATGATTGTTCTCCCAGCTGATGAATTCTCTTAATCGAGTAAACAAATTTTCCTAATCTTTCTGTTCAAGCGCCATCTAC”, the binding signal is 0.948 RPM ratio (pull-down/input).
With “GATGATTGTTCTCCCAGCTGATGAATTTTCATAGTCGAGTAAACAAATTTTCCTAATCTTTCTGTTCAAGCGCCATCTAC”, the binding signal was 1.04 RPM ratio (pull-down/input).
Regarding “GATGATTGTTCTCCCAGCTGATGAATTCGTGTATTCGAGTAAACAAATTTTCCTAATCTTTCTGTTCAAGCGCCATCTAC”, the binding signal is 1.35 RPM ratio (pull-down/input).
In the case of “GATGATTGTTCTCCCAGCTGATGAATTCACACATTCGAGTAAACAAATTTTCCTAATCTTTCTGTTCAAGCGCCATCTAC”, the binding signal was 1.03 RPM ratio (pull-down/input).
The result for “GATGATTGTTCTCCCAGCTGATGAATTATTTCTCTCGAGTAAACAAATTTTCCTAATCTTTCTGTTCAAGCGCCATCTAC” reads 1.08 RPM ratio (pull-down/input).
For “GATGATTGTTCTCCCAGCTGATGAATTATAGATTTCGAGTAAACAAATTTTCCTAATCTTTCTGTTCAAGCGCCATCTAC” the value was 0.919 RPM ratio (pull-down/input); for “GATGATTGTTCTCCCAGCTGATGAATTACCATGATCGAGTAAACAAATTTTCCTAATCTTTCTGTTCAAGCGCCATCTAC”, 1.03 RPM ratio (pull-down/input).
For “GATGATTGTTCTCCCAGCTGATGAATTTTTTGCGTCGAGTAAACAAATTTTCCTAATCTTTCTGTTCAAGCGCCATCTAC” the value was 1.1 RPM ratio (pull-down/input); for “GATGATTGTTCTCCCAGCTGATGAATTCCCTACATCGAGTAAACAAATTTTCCTAATCTTTCTGTTCAAGCGCCATCTAC”, 0.997 RPM ratio (pull-down/input).
For “GATGATTGTTCTCCCAGCTGATGAATTATGGCGCTCGAGTAAACAAATTTTCCTAATCTTTCTGTTCAAGCGCCATCTAC”, the binding signal was 1.02 RPM ratio (pull-down/input).
On to “GATGATTGTTCTCCCAGCTGATGAATTGATAGCATCGAGTAAACAAATTTTCCTAATCTTTCTGTTCAAGCGCCATCTAC”, for which the binding signal was 1.3 RPM ratio (pull-down/input).
As for “GATGATTGTTCTCCCAGCTGATGAATTACTTCTGTCGAGTAAACAAATTTTCCTAATCTTTCTGTTCAAGCGCCATCTAC”, the binding signal was 1.05 RPM ratio (pull-down/input).
On to “GATGATTGTTCTCCCAGCTGATGAATTCCTAGCCTCGAGTAAACAAATTTTCCTAATCTTTCTGTTCAAGCGCCATCTAC”, for which the binding signal was 0.812 RPM ratio (pull-down/input).
Turning to “GATGATTGTTCTCCCAGCTGATGAATTCAAATTGTCGAGTAAACAAATTTTCCTAATCTTTCTGTTCAAGCGCCATCTAC”, the binding signal was 0.924 RPM ratio (pull-down/input).
In the case of “GATGATTGTTCTCCCAGCTGATGAATTGTGTGAGTCGAGTAAACAAATTTTCCTAATCTTTCTGTTCAAGCGCCATCTAC”, the binding signal is 1.07 RPM ratio (pull-down/input).
The result for “GATGATTGTTCTCCCAGCTGATGAATTGTTCGGTTCGAGTAAACAAATTTTCCTAATCTTTCTGTTCAAGCGCCATCTAC” reads 1.03 RPM ratio (pull-down/input).
Turning to “GATGATTGTTCTCCCAGCTGATGAATTGAAGGGTTCGAGTAAACAAATTTTCCTAATCTTTCTGTTCAAGCGCCATCTAC”, the binding signal was 0.759 RPM ratio (pull-down/input).
The result for “GATGATTGTTCTCCCAGCTGATGAATTGTGAATTTCGAGTAAACAAATTTTCCTAATCTTTCTGTTCAAGCGCCATCTAC” reads 1.13 RPM ratio (pull-down/input); that for “GATGATTGTTCTCCCAGCTGATGAATTCCTAATCTCGAGTAAACAAATTTTCCTAATCTTTCTGTTCAAGCGCCATCTAC”, 0.834 RPM ratio (pull-down/input); that for “GATGATTGTTCTCCCAGCTGATGAATTGTCTCTATCGAGTAAACAAATTTTCCTAATCTTTCTGTTCAAGCGCCATCTAC”, 1.05 RPM ratio (pull-down/input).
For “GATGATTGTTCTCCCAGCTGATGAATTATTGGTATCGAGTAAACAAATTTTCCTAATCTTTCTGTTCAAGCGCCATCTAC” the value was 1.55 RPM ratio (pull-down/input); for “GATGATTGTTCTCCCAGCTGATGAATTTGCCCCGTCGAGTAAACAAATTTTCCTAATCTTTCTGTTCAAGCGCCATCTAC”, 0.851 RPM ratio (pull-down/input); for “GATGATTGTTCTCCCAGCTGATGAATTATCTGGATCGAGTAAACAAATTTTCCTAATCTTTCTGTTCAAGCGCCATCTAC”, 0.897 RPM ratio (pull-down/input).

These data come from article PMC12820563, “FoxP3 forms a head-to-head dimer in vivo and stabilizes its multimerization on adjacent microsatellites”.
